Experimental data reported in PubChem BioAssay AID504332 (National Center for Advancing Translational Sciences (NCATS), 2011).
In all, about 350,000 compounds went through this assay and about 31,000 (8.9%) were called active. Inconclusive means that the source gave no clear call. Such entries were picked first, then a sample of the others. Calls follow the shape of the dose curve; as a rule, active = well fitted inhibition curve with a large enough effect; inconclusive = small, poorly fitted or top-dose-only effect; inactive = no such curve, though single readings can be large or run the other way. Potencies beside an inconclusive call are fits to weak or partial responses and may not hold up.

The compounds below were run against Histone-lysine N-methyltransferase EHMT2 (Homo sapiens) (UniProt Q96KQ7) (assay: qHTS Assay for Inhibitors of Histone Lysine Methyltransferase G9a). Conditions: G9a H3K9 monomethylation, AlphaScreen, 2 h; activity, negative = inhibition: at 59 µM (top of the series) unless noted.
Procedure, shortened: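 Readings reflect AlphaScreen signal from monomethyl-H3K9 antibody detection. HMT at 20 nM; substrate b-H3K9 500 nM; cofactor SAM 20 uM; 2 h RT reaction; compounds tested as titrations in qHTS with 15 min preincubation.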
% is scaled to controls: 0 for no effect and ±100 for the full control effect; potency is read from the fitted curve at half-maximal effect; tags tell the direction and shape of the fitted curve.
Also: nearly all actives have a fitted effect of over 75% in size.

Chain of UniProt Q96KQ7 (Q96KQ7 whole entry, looked up): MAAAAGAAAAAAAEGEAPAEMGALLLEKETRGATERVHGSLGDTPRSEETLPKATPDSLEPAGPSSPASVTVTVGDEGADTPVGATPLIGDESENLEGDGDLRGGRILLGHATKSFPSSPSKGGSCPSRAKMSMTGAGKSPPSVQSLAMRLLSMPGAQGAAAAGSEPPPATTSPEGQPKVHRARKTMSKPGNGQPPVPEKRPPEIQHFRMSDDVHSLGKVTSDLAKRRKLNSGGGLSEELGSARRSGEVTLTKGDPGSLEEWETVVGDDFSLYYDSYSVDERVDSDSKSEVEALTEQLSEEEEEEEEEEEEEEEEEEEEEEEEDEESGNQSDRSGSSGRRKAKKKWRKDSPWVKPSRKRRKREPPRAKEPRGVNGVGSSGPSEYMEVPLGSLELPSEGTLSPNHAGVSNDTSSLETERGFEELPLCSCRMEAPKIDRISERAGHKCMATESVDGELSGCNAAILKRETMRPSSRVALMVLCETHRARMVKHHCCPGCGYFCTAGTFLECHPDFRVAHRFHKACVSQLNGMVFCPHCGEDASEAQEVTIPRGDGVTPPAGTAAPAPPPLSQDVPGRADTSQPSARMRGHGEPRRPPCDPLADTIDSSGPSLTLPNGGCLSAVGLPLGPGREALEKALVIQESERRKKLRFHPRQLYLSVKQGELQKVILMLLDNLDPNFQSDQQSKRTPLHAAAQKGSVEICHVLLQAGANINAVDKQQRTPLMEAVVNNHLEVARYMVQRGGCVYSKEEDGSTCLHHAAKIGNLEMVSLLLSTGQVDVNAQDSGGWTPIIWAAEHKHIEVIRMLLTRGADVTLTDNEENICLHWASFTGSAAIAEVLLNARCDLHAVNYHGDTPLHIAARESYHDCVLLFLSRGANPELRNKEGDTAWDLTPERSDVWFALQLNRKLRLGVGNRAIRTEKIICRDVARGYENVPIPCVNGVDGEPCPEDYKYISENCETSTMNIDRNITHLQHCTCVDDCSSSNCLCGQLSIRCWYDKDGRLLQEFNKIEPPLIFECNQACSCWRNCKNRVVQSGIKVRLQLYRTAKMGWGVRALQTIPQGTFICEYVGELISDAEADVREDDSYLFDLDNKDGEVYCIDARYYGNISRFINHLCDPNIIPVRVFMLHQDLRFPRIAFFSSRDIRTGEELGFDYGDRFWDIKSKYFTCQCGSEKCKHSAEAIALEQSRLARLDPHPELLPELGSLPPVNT

| Compound | activity, negative = inhibition | Potency |
| --- | --- | --- |
| C/C(=N\NC(=O)COc1ccccc1-c1ccccc1)c1ccccn1 | inactive: -7.8% [at 102 µM] | – |
| COc1ccc(OCc2ccc(-c3nc(C#N)c(NCc4cccnc4)o3)o2)cc1 | – | active: 12.6 µM |
| CCOC(=O)c1cc(S(=O)(=O)NCc2ccc(OC)cc2)[nH]n1 | – | active: 12.6 µM |
| N#Cc1cnn2c3c(cnc12)C(=O)N1CCc2ccccc2C1C3 (stereo unspecified) | – | inconclusive: 56.2 µM [inhibitor, single point] |
| CCOC(=O)C1Cc2c([nH]c3ccccc23)C(C)N1 (stereo unspecified) | inconclusive: -75.1% [inhibitor] | – |
| Cc1cccc2c(=O)cc(CSc3ccccc3NC(=O)C(C)(C)C)[nH]c12 | inactive: -26.1% | – |
| Cc1ccc2oc(C(Cl)(Cl)Cl)cc(=O)c2c1 | inactive: -3.22% | – |
| CCc1noc(C)c1C(=O)NCCc1ccc(Cl)cc1 | – | inconclusive: 10 µM [inhibitor, full curve, poor fit] |
| Cc1cc(C)cc(NC(=O)N2CCN(C(=O)c3nsc4ccccc34)CC2)c1 | inactive: 3.53% | – |
| C=CCN1C(=O)/C(=C/C=C2/N(CC)c3ccc(S(=O)(=O)N(C)C)cc3N2CC)SC1=S | – | inconclusive: 44.7 µM [inhibitor, partial curve, poor fit] |
| Cc1nnc(NC(=O)C2CC(=O)N(C(C)c3ccccc3)C2)s1 (stereo unspecified) | inactive: 7.86% [at 102 µM] | – |
| O=C(NNc1c([N+](=O)[O-])cc(C(F)(F)F)cc1[N+](=O)[O-])c1ccco1 | inconclusive: -63% [inhibitor] [at 12.7 µM] | – |
| Cc1ccc(S(=O)(=O)Nc2ccc3[nH]c(=O)[nH]c3c2)c(C)c1 | – | inconclusive: 50.1 µM [inhibitor, partial curve] |
| CSCCC(NC(=O)c1ccc(=O)n(C)n1)c1nc2ccccc2[nH]1 (stereo unspecified) | – | inconclusive: 39.8 µM [inhibitor, single point] |
| CN1CCN(Cc2nc3ccccc3c(=O)n2Cc2nc(-c3ccc4ccccc4c3)cs2)CC1 | – | inconclusive: 22.4 µM [inhibitor, single point] |
| COc1ccc(OC)c(S(=O)(=O)N2CCN(Cc3nc4ccc(C)cc4o3)CC2)c1 | inactive: 0.539% | – |
| O=C(Oc1ccc(-c2cnc3ccccc3n2)cc1)c1ccc(Cl)c([N+](=O)[O-])c1 | – | inconclusive: 2.82 µM [inhibitor, full curve] |
| CNC(=S)N(CCc1c(C)[nH]c2ccccc12)Cc1cc(OC)c(OC)c(OC)c1 | – | inconclusive: 89.1 µM [inhibitor, single point] |
| Cc1ccccc1-c1nc(SCc2cccnc2)c2c(=O)n(C)c(=O)n(C)c2n1 | – | active: 56.2 µM |
| Cc1nc2cc(-c3cccs3)nn2c(NCC(C)(C)CN(C)C)c1C | – | active: 50.1 µM |
| O=C(OCC(=O)N1CCCc2ccccc21)c1cc(S(=O)(=O)N2CCOCC2)ccc1Cl | – | inconclusive: 89.1 µM [inhibitor, partial curve, poor fit] |
| O=C(Nc1cccc(-c2nn[nH]n2)c1)c1ccc(Cl)s1 | – | inconclusive: 89.1 µM [inhibitor, single point] |
| COC(=O)c1sccc1NC(=S)Nc1cc(C)ccc1OC | – | active: 50.1 µM |
| O=S(=O)(c1ccc(F)cc1)c1nc(-c2ccc(F)cc2)oc1NCCN1CCOCC1 | – | active: 50.1 µM |

| Compound | activity, negative = inhibition | Potency |
| --- | --- | --- |
| CCCC(C)C(=O)Nc1ncc(S(=O)(=O)c2ccc([N+](=O)[O-])cc2)s1 (stereo unspecified) | inactive: -6.19% [at 102 µM] | – |
| CCCCn1c(N)c(N(CC)C(=O)C2=COCCO2)c(=O)[nH]c1=O | – | inconclusive: 79.4 µM [inhibitor, partial curve, poor fit] |
| Cc1nn(CC(=O)N2CCN(C34CC5CC(CC(C5)C3)C4)CC2)c(C)c1[N+](=O)[O-] | – | active: 25.1 µM |
| COc1ccc(C2C(CC(=O)O)=C(Nc3ccccc3)C(=O)N2c2ccccc2)cc1 (stereo unspecified) | – | inconclusive: 35.5 µM [inhibitor, partial curve] |
| O=C1CC(N2CCN(C/C=C/c3ccccc3)CC2)C(=O)N1Cc1ccc(N2CCCC2=O)cc1 (stereo unspecified) | inactive: -22.2% [at 102 µM] | – |
| CC(=O)N1CCc2cc(S(=O)(=O)NC(Cc3ccccc3)C(=O)NCc3ccccc3Cl)ccc21 (stereo unspecified) | – | inconclusive: 31.6 µM [inhibitor, partial curve, poor fit] |
| CCN(C(=O)COc1ncnc2sccc12)c1ccccc1 | inactive: -20.4% [at 102 µM] | – |
| CCc1nnc(NC(=O)CSc2nc3cc4c(cc3cc2CC)OCCO4)s1 | – | inconclusive: 25.1 µM [inhibitor, partial curve, poor fit] |
| O=C(CN1C(=O)NC2(CCCCC2)C1=O)NCCc1c[nH]c2ccccc12 | inactive: 52.5% [at 102 µM] | – |
| COc1ccc(NC(=O)CN(C)CC(=O)Nc2cccc(C(C)=O)c2)cc1 | – | active: 4.47 µM |
| CCN1CCN(c2cc(C)c3cc(NC(=O)CCC(=O)Nc4ccc(OC)c(OC)c4)ccc3n2)CC1 | – | inconclusive: 70.8 µM [inhibitor, single point] |
| CCOc1ccc2nc(N(Cc3cccnc3)C(C)=O)sc2c1 | – | inconclusive: 4.47 µM [inhibitor, partial curve, poor fit] |
| O=C(NCc1cccc(F)c1)C1CCC(=O)N(C2CC2)C1 (stereo unspecified) | inactive: 3.05% [at 102 µM] | – |
| CCOCCn1c(=O)c2c(nc3n2CCCN3Cc2ccccc2)n(C)c1=O | – | inconclusive: 79.4 µM [inhibitor, partial curve, poor fit] |
| CCOC(=O)Cn1c(CN2CCN(c3ccc(OC)cc3)CC2)nc2c1c(=O)[nH]c(=O)n2C | – | inconclusive: 28.2 µM [inhibitor, single point] |
| Cc1ccc(OCc2n[nH]c(=S)n2-c2ccccc2)cc1 | – | active: 1.58 µM |
| CCCCOc1cccc(-c2cc(C(=O)NNC(=S)NCC)c3ccccc3n2)c1 | – | inconclusive: 79.4 µM [inhibitor, single point] |
| O=C(N/N=C/c1c(F)c(F)c(F)c(F)c1F)c1cccc(S(=O)(=O)N2CCOCC2)c1 | inactive: 8.98% [at 102 µM] | – |
| COc1ccc(NC2(c3ccccc3)OC(=O)c3ccccc32)cc1 (stereo unspecified) | inactive: 22.7% | – |
| CCOc1ccccc1NC(=S)NCc1cccn1C | – | inconclusive: 39.8 µM [inhibitor, partial curve, poor fit] |
| O=C(O)c1ccc(CSCc2ccco2)cc1 | – | inconclusive: 3.55 µM [inhibitor, single point] |
| CN(C)C(CNC(=O)c1ccc2c(=O)n(-c3ccccc3F)c(=S)[nH]c2c1)Cc1ccccc1 (stereo unspecified) | – | inconclusive: 50.1 µM [inhibitor, partial curve] |
| Cc1cc(NC(=O)c2ccc(C#N)cc2)n(-c2ccccn2)n1 | – | active: 44.7 µM |
| O=c1c(-c2cc(F)cc(F)c2)nc2cncnc2n1Cc1ccccc1 | inactive: 1.26% [at 0.501 µM] | – |

| Compound | activity, negative = inhibition | Potency |
| --- | --- | --- |
| O=C1c2ccccc2C(=O)N1CCCc1nc(-c2ccccn2)no1 | inactive: 21.6% | – |
| c1sc2[n+](c1C13CC4CC(CC(C4)C1)C3)CCS2 | – | inconclusive: 89.1 µM [inhibitor, single point] |
| O=C(CSc1nn(-c2ccc(F)cc2)c(=S)s1)NC1CCS(=O)(=O)C1 (stereo unspecified) | – | inconclusive: 70.8 µM [inhibitor, partial curve] |
| CSC1=N/C(=C\c2ccc(F)cc2)C(=O)S1 | – | inconclusive: 8.91 µM [inhibitor, partial curve] |
| C=CCn1c(C(CCCC)CC(O)COCCC)n[nH]c1=S (stereo unspecified) | – | inconclusive: 70.8 µM [inhibitor, single point] |
| CC[n+]1ccccc1/C=C/Nc1ccccc1 | – | active: 44.7 µM |
| CN/N=C(\Cc1nc2ccccc2[nH]1)c1ccc([N+](=O)[O-])cc1 | – | inconclusive: 39.8 µM [inhibitor, partial curve, poor fit] |
| COc1ccc(CCNc2nc(-c3ccc(O)cc3)cs2)cc1OC | – | active: 22.4 µM |
| CSc1cccc(NC(=O)CN2C(=O)CCc3cc(S(=O)(=O)N4CCCCC4)ccc32)c1 | inactive: -38.2% | – |
| CC(Oc1ccccc1)C(=O)Nc1nc(-c2ccccn2)cs1 (stereo unspecified) | – | active: 50.1 µM |
| COc1ccccc1-c1nnc(C2CCN(S(=O)(=O)c3cccc([N+](=O)[O-])c3)CC2)o1 | – | inconclusive: 50.1 µM [inhibitor, partial curve] |
| O=C(/C=C/c1ccc([N+](=O)[O-])cc1)NCCSc1ccccc1 | inconclusive: -65.2% [inhibitor] [at 12.7 µM] | – |
| O=c1c2cc(N3CCOCC3)ccc2[nH]c(=S)n1CC1CCCO1 (stereo unspecified) | – | inconclusive: 3.55 µM [inhibitor, single point] |
| O=c1cc[nH]c2c(Cl)cccc12 | inactive: 22.3% [at 0.501 µM] | – |
| COc1ccc(OC)c(NC(=O)Nc2ccc3c(c2)OCO3)c1 | – | active: 79.4 µM |
| COC(=O)C1NN=C(C(=O)c2ccc(Br)cc2)C1c1cccc(Br)c1 (stereo unspecified) | – | inconclusive: 89.1 µM [inhibitor, single point] |
| O=C(NCc1ccccc1)C1=C[C@H](c2csc3ccccc23)C[C@H](OCCCCO)O1 | inconclusive: -63% [inhibitor] | – |
| CCOC(=O)CSC1=C(C#N)C(c2ccccc2C)C2=C(CCCC2=O)N1 (stereo unspecified) | – | inconclusive: 3.55 µM [inhibitor, partial curve, poor fit] |
| O=C(CSc1ccc(-c2nc3ccccc3[nH]2)cn1)N1CCN(C(=O)c2ccco2)CC1 | – | inconclusive: 31.6 µM [inhibitor, partial curve] |
| Cc1cc(OCCN2CCOCC2)ccc1[N+](=O)[O-] | – | active: 7.94 µM |
| CCOC(=O)CCCCC(=O)c1[nH]c(=O)[nH]c1CSc1nnc2c3cc(Br)ccc3n(C)c2n1 | – | active: 28.2 µM |
| CC(C)c1cccc(C(C)C)c1NC(=O)CN1C(=O)NC2(CCCCCCC2)C1=O | inactive: 21.8% [at 12.7 µM] | – |
| COc1ccc(N2CCN(CCCNC(=O)c3ccc4nc(Cc5ccccc5)oc4c3)CC2)cc1 | – | active: 14.1 µM |
